# According to the supplement of paper PMC8728848:
# Some of the results follow.
# Legend:
# Test in all cases: glycan array binding signal (z-score within array); higher = stronger binding
# Details in all cases: glycan notation: IUPAC condensed, linker removed
# [1] = biological target: GlcNAc(b1-6)Gal(b1-4)GlcNAc
# Outline: (§1)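 Glycan array data were curated from 3228 arrays in the Consortium for Functional Glycomics database and kept only where the protein sequence was available. Glycan names were converted to IUPAC-condensed notation, and columns mapping to the same glycan were averaged. The binding signal is a within-array Z-score, averaged across arrays of the same protein sequence at different concentrations or buffers and across linkers. Negative Z-scores can be read as non-binding.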
# GlcNAc(b1-6)GalNAc = biological target: GlcNAc(b1-6)GalNAc
# Outline: as §1
# GlcNAc3Prop(b1-4)GlcNAc = biological target: GlcNAc3Prop(b1-4)GlcNAc
# Outline: as §1
# Kdn(a2-3)Gal(b1-3)GlcNAc = biological target: Kdn(a2-3)Gal(b1-3)GlcNAc
# Outline: as §1
# Kdn(a2-3)Gal(b1-4)GlcNAc = biological target: Kdn(a2-3)Gal(b1-4)GlcNAc
# Outline: as §1
# [2] = biological target: Man(a1-2)Man(a1-2)Man(a1-3)Man
# Outline: as §1
# [3] = biological target: Man(a1-2)Man(a1-2)Man(a1-6)[Man(a1-3)]Man
# Outline: as §1
# Man(a1-2)Man(a1-3)Man = biological target: Man(a1-2)Man(a1-3)Man
# Outline: as §1
# [4] = biological target: Man(a1-2)Man(a1-3)[Man(a1-2)Man(a1-6)]Man
# Outline: as §1
# [5] = biological target: Man(a1-2)Man(a1-3)[Man(a1-2)Man(a1-6)]Man(a1-6)[Man(a1-2)Man(a1-2)Man(a1-3)]Man
# Outline: as §1
# [6] = biological target: Man(a1-2)Man(a1-3)[Man(a1-2)Man(a1-6)]Man(a1-6)[Man(a1-2)Man(a1-2)Man(a1-3)]Man(b1-4)GlcNAc(b1-4)GlcNAc
# Outline: as §1
# [7] = biological target: Man(a1-2)Man(a1-3)[Man(a1-6)]Man(a1-6)[Man(a1-2)Man(a1-3)]Man(b1-4)GlcNAc(b1-4)GlcNAc
# Outline: as §1
# [8] = biological target: Man(a1-2)Man(a1-6)[Man(a1-3)]Man(a1-6)[Man(a1-2)Man(a1-2)Man(a1-3)]Man
# Outline: as §1
# [9] = biological target: Man(a1-2)Man(a1-6)[Man(a1-3)]Man(a1-6)[Man(a1-2)Man(a1-2)Man(a1-3)]Man(b1-4)GlcNAc(b1-4)GlcNAc
# Outline: as §1
# Man(a1-3)[Man(a1-6)]Man = biological target: Man(a1-3)[Man(a1-6)]Man
# Outline: as §1
# [10] = biological target: Man(a1-3)[Man(a1-6)]Man(a1-6)[Man(a1-2)Man(a1-3)]Man(b1-4)GlcNAc(b1-4)GlcNAc
# Outline: as §1
# [11] = biological target: Man(a1-3)[Man(a1-6)]Man(a1-6)[Man(a1-3)]Man
# Outline: as §1
# [12] = biological target: Man(a1-3)[Man(a1-6)]Man(a1-6)[Man(a1-3)]Man(b1-4)GlcNAc(b1-4)GlcNAc
# Outline: as §1
# [13] = biological target: Man(a1-3)[Man(a1-6)]Man(b1-4)GlcNAc(b1-4)GlcNAc
# Outline: as §1
# Man(a1-6)Man = biological target: Man(a1-6)Man
# Outline: as §1
# Man(b1-4)GlcNAc = biological target: Man(b1-4)GlcNAc
# Outline: as §1
# Neu5Ac(a2-3)Gal = biological target: Neu5Ac(a2-3)Gal
# Outline: as §1
# [14] = biological target: Neu5Ac(a2-3)Gal(b1-3)GalNAc
# Outline: as §1
# [15] = biological target: Neu5Ac(a2-3)Gal(b1-3)GalNAc(b1-3)Gal(a1-4)Gal(b1-4)Glc
# Outline: as §1
# [16] = biological target: Neu5Ac(a2-3)Gal(b1-3)GalNAc(b1-3)Gal(b1-4)GlcNAc
# Outline: as §1
# [17] = biological target: Neu5Ac(a2-3)Gal(b1-3)GalNAc(b1-4)[Neu5Ac(a2-3)]Gal(b1-4)Glc
# Outline: as §1
# [18] = biological target: Neu5Ac(a2-3)Gal(b1-3)GalNAc6S
# Outline: as §1
# [19] = biological target: Neu5Ac(a2-3)Gal(b1-3)GlcNAc
# Outline: as §1
# [20] = biological target: Neu5Ac(a2-3)Gal(b1-3)GlcNAc(b1-3)Gal(b1-3)GlcNAc
# Outline: as §1
# [21] = biological target: Neu5Ac(a2-3)Gal(b1-3)GlcNAc6S
# Outline: as §1
# [22] = biological target: Neu5Ac(a2-3)Gal(b1-3)[Fuc(a1-4)]GlcNAc
# Outline: as §1
# [23] = biological target: Neu5Ac(a2-3)Gal(b1-3)[Fuc(a1-4)]GlcNAc(b1-3)Gal(b1-4)[Fuc(a1-3)]GlcNAc
# Outline: as §1
# [24] = biological target: Neu5Ac(a2-3)Gal(b1-3)[Neu5Ac(a2-3)Gal(b1-4)]GlcNAc
# Outline: as §1
# [25] = biological target: Neu5Ac(a2-3)Gal(b1-3)[Neu5Ac(a2-6)]GalNAc
# Outline: as §1
# Neu5Ac(a2-3)Gal(b1-4)Glc = biological target: Neu5Ac(a2-3)Gal(b1-4)Glc
# Outline: as §1
# [26] = biological target: Neu5Ac(a2-3)Gal(b1-4)GlcNAc
# Outline: as §1
# [27] = biological target: Neu5Ac(a2-3)Gal(b1-4)GlcNAc(b1-2)Man(a1-3)[GlcNAc(b1-2)Man(b1-4)GlcNAc(b1-2)Man(a1-6)]Man(b1-4)GlcNAc(b1-4)GlcNAc
# Outline: as §1
# [28] = biological target: Neu5Ac(a2-3)Gal(b1-4)GlcNAc(b1-2)Man(a1-3)[Neu5Ac(a2-6)Gal(b1-4)GlcNAc(b1-2)Man(a1-6)]Man(b1-4)GlcNAc(b1-4)GlcNAc
# Outline: as §1
# [29] = biological target: Neu5Ac(a2-3)Gal(b1-4)GlcNAc(b1-3)Gal(b1-3)GlcNAc
# Outline: as §1
# [30] = biological target: Neu5Ac(a2-3)Gal(b1-4)GlcNAc(b1-3)Gal(b1-4)GlcNAc
# Outline: as §1
# [31] = biological target: Neu5Ac(a2-3)Gal(b1-4)GlcNAc(b1-3)Gal(b1-4)GlcNAc(b1-3)Gal(b1-4)GlcNAc
# Outline: as §1
# [32] = biological target: Neu5Ac(a2-3)Gal(b1-4)GlcNAc(b1-3)Gal(b1-4)[Fuc(a1-3)]GlcNAc
# Outline: as §1
# [33] = biological target: Neu5Ac(a2-3)Gal(b1-4)GlcNAc(b1-6)[Gal(b1-3)]GalNAc
# Outline: as §1
# [34] = biological target: Neu5Ac(a2-3)Gal(b1-4)GlcNAc(b1-6)[Neu5Ac(a2-3)Gal(b1-3)]GalNAc
# Outline: as §1
# [35] = biological target: Neu5Ac(a2-3)Gal(b1-4)GlcNAc6S
# Outline: as §1
binder,measurement,setting,value
GH95CBM (Clostridium perfringens) (protein) EKVAVETSVYLSELEWKSASTGYGEIQKDASCDGNTITLKGENGEKVSYDKGIGTHAHSEIVYSLEGLDYYDYFETFVGVDQEMAGTVASISFEVYLDNEKVFDSGLMTGDTTQKHVKVPIAGKNTLKLVVKDGGDSIGSDHGSFGDAKLT,glycan array binding signal (z-score),[1],-0.319
same,glycan array binding signal (z-score),GlcNAc(b1-6)GalNAc,-0.35
same,glycan array binding signal (z-score),GlcNAc3Prop(b1-4)GlcNAc,-0.351
same,glycan array binding signal (z-score),Kdn(a2-3)Gal(b1-3)GlcNAc,-0.337
same,glycan array binding signal (z-score),Kdn(a2-3)Gal(b1-4)GlcNAc,-0.204
same,glycan array binding signal (z-score),[2],-0.16
same,glycan array binding signal (z-score),[3],-0.306
same,glycan array binding signal (z-score),Man(a1-2)Man(a1-3)Man,-0.318
same,glycan array binding signal (z-score),[4],-0.341
same,glycan array binding signal (z-score),[5],1.43
same,glycan array binding signal (z-score),[6],-0.359
same,glycan array binding signal (z-score),[7],-0.281
same,glycan array binding signal (z-score),[8],-0.363
same,glycan array binding signal (z-score),[9],-0.3
same,glycan array binding signal (z-score),Man(a1-3)[Man(a1-6)]Man,-0.3
same,glycan array binding signal (z-score),[10],-0.345
same,glycan array binding signal (z-score),[11],-0.376
same,glycan array binding signal (z-score),[12],-0.302
same,glycan array binding signal (z-score),[13],-0.367
same,glycan array binding signal (z-score),Man(a1-6)Man,-0.314
same,glycan array binding signal (z-score),Man(b1-4)GlcNAc,-0.306
same,glycan array binding signal (z-score),Neu5Ac(a2-3)Gal,-0.311
same,glycan array binding signal (z-score),[14],-0.345
same,glycan array binding signal (z-score),[15],-0.335
same,glycan array binding signal (z-score),[16],-0.326
same,glycan array binding signal (z-score),[17],-0.272
same,glycan array binding signal (z-score),[18],-0.301
same,glycan array binding signal (z-score),[19],-0.342
same,glycan array binding signal (z-score),[20],-0.359
same,glycan array binding signal (z-score),[21],-0.331
same,glycan array binding signal (z-score),[22],-0.358
same,glycan array binding signal (z-score),[23],-0.265
same,glycan array binding signal (z-score),[24],-0.355
same,glycan array binding signal (z-score),[25],-0.314
same,glycan array binding signal (z-score),Neu5Ac(a2-3)Gal(b1-4)Glc,0.497
same,glycan array binding signal (z-score),[26],-0.196
same,glycan array binding signal (z-score),[27],0.978
same,glycan array binding signal (z-score),[28],-0.357
same,glycan array binding signal (z-score),[29],-0.358
same,glycan array binding signal (z-score),[30],-0.339
same,glycan array binding signal (z-score),[31],-0.239
same,glycan array binding signal (z-score),[32],-0.329
same,glycan array binding signal (z-score),[33],-0.289
same,glycan array binding signal (z-score),[34],0.839
same,glycan array binding signal (z-score),[35],-0.351
